The full ranking holds about 33,000 sequences; the median of “E-score (-0.5 to 0.5)” is about -0.016, and the highest 2% start at about 0.31. This is one part of the list.
Target: Cst6 (UniProt P40535)
Assay: PBM E-score (8-mer binding enrichment) (E-score (-0.5 to 0.5)); higher = stronger / more preferred TF binding; most listed sequences are background and not binding sites
Conditions: protein concentration: 200 nM; construct: GST-DNA-binding domain
How it was run: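 Universal all-10-mer Agilent arrays, fresh or stripped once, were converted to double-stranded form by primer extension. GST-tagged yeast transcription factors from PURExpress in vitro transcription/translation, full-length or DNA-binding domain only, were applied at about 100-200 nM and detected with fluorescent anti-GST. After masliner normalisation, the Universal PBM Analysis Suite scored each ungapped eight-base word together with its reverse complement by E-score.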

| Sequence | PBM E-score |
| --- | --- |
| ATAGTGTA | 0.211 |
| GGGATACC | -0.314 |
| CACAAGAA | 0.226 |
| GATACCAC | 0.0181 |
| ACGAGCTC | -0.14 |
| TGTCTGAA | 0.0411 |
| ACGCGAGT | 0.0367 |
| GGTCGACA | -0.27 |
| CATAGCAG | -0.162 |
| AGATATAG | 0.137 |
| AGGTCTAG | -0.24 |
| AGCAAGGG | -0.151 |
| GAGCCGGA | -0.158 |
| AAAGAACG | 0.0442 |
| CTTTGTAA | 0.158 |
| AACGTACC | -0.185 |
| ACCATTCC | -0.0416 |
| ACGGACAG | -0.0813 |
| AACTCAGC | -0.0387 |
| CGTAGGGA | 0.0117 |
| CAATGAAA | 0.153 |
| AGTAACCG | 0.119 |
| CGTTGGAA | -0.0227 |
| AACATTGC | -0.1 |
| CCTCCCCA | -0.171 |

| Sequence | PBM E-score |
| --- | --- |
| AAGGCTAG | -0.0504 |
| CGTTGGCC | -0.295 |
| ACCCTGTA | -0.12 |
| ACTGTACT | -0.183 |
| ATAATAGG | 0.152 |
| ATCATGTC | 0.213 |
| CAGAGGGG | -0.339 |
| CTCTATTA | 0.0287 |
| CGTTACAG | 0.0192 |
| GTTACACA | 0.188 |
| AGGGTTCA | -0.0295 |
| CTATTTTA | 0.216 |
| ATCGTTAA | 0.095 |
| CCAACAAG | -0.0327 |
| AGTGGTCC | -0.0852 |
| CCTGGTAC | -0.0251 |
| GTAATGTA | 0.179 |
| ACGAAGAT | 0.0664 |
| ACACTGTC | -0.15 |
| AAGCACTC | -0.208 |
| GCGGAGCA | -0.103 |
| AATTTCAC | 0.0969 |
| ACTCGTCT | -0.018 |
| ACATCTTA | 0.126 |
| CGCATAGC | -0.0786 |

| Sequence | PBM E-score |
| --- | --- |
| GAGTGAGC | -0.0451 |
| GGGAACAA | -0.0237 |
| CGAGGGAA | -0.0805 |
| CTATTGGC | -0.284 |
| AGTCCGCG | -0.0191 |
| AAGGTCAG | -0.256 |
| CCCACGAC | -0.28 |
| TCGGGGAA | 0.0239 |
| CGGGTTAG | -0.301 |
| AATTGAGC | -0.0329 |
| CCAACTCC | -0.00709 |
| ATGTTGAC | 0.294 |
| GAGTCTAC | -0.129 |
| CAGGGGGA | -0.382 |
| GCTTCCCA | -0.237 |
| CTATCAAC | 0.0928 |
| TTAATGAA | 0.201 |
| CTATGCTA | -0.00196 |
| ATATCGAT | 0.0207 |
| AAAGCTTC | -0.172 |
| GGACATCC | -0.274 |
| CCTTGCGC | -0.158 |
| CCTACACG | -0.249 |
| ACAGCAGA | -0.0947 |
| CCAAAGGG | -0.125 |

| Sequence | PBM E-score |
| --- | --- |
| AAGTTAAC | 0.181 |
| CGTATGTC | 0.0736 |
| ACTATCTC | -0.00811 |
| CCAATCCC | -0.239 |
| CAACTCTC | -0.257 |
| ATAAATTA | 0.373 |
| GTTGACGA | 0.192 |
| CACCATAC | -0.0478 |
| ACCAGTCA | -0.0553 |
| CAGTGCAA | 0.0823 |
| GTTTCTAA | 0.121 |
| CAAATTTG | 0.0722 |
| TACACCCA | -0.0761 |
| GGCGTTTA | 0.161 |
| GTTTACTA | 0.12 |
| AAACCGCA | -0.236 |
| GACCCTGA | -0.242 |
| CATCTATC | -0.0227 |
| TCGGGACA | -0.11 |
| AGTAGGTG | -0.0209 |
| CACGTTCA | -0.104 |
| CCCGGTTC | -0.269 |
| AGGACAAA | 0.129 |
| GCGCGATA | 0.236 |
| TGCAGAAA | 0.214 |

| Sequence | PBM E-score |
| --- | --- |
| ATTGAGTC | -0.00653 |
| GTCTACGA | -0.16 |
| AGTTGTCC | -0.0979 |
| CGGAACGA | 0.0755 |
| GTCTAACA | -0.113 |
| AAATTGCA | 0.201 |
| ACGGTGTC | -0.101 |
| GACCGCTC | -0.117 |
| CTCTCCAG | -0.382 |
| ACATATGT | 0.261 |
| AGCTCCCC | -0.373 |
| CGATCTGA | -0.0214 |
| ACAGCGGC | -0.147 |
| GATTCAGA | 0.0256 |
| CCCTACAG | -0.327 |
| ATCTTCAC | 0.0987 |
| ACGCTTCA | -0.0976 |
| AAACCCGT | 0.0445 |
| CCGGCTTA | -0.22 |
| ATAACGAC | 0.133 |
| ACCAGACC | -0.0892 |
| CCAACGAC | -0.122 |
| GATTAATA | 0.261 |
| GGGGAATA | -0.101 |
| TAAAACAA | 0.131 |

| Sequence | PBM E-score |
| --- | --- |
| ACCTCCGG | -0.116 |
| AGAATCCA | -0.0573 |
| AAGATATT | 0.0924 |
| GTATGTTA | 0.182 |
| GATTAGTA | 0.0105 |
| CGACTCGC | -0.116 |
| GAGAATTA | 0.162 |
| AGGCTACC | -0.254 |
| ATGTTTTG | 0.215 |
| CAGTACGG | 0.116 |
| GCGTCAGC | 0.15 |
| GCTTGCCC | -0.266 |
| CGCTATAC | -0.101 |
| GTACCGTA | -0.0634 |
| GATTGGGC | -0.0234 |
| GGAAAACA | 0.0595 |
| CTCTATCA | -0.0627 |
| CAAACGTA | 0.234 |
| ACTGACCT | -0.0553 |
| CGATAAAC | 0.035 |
| GTCTCAGA | -0.0476 |
| CGAGAATC | -0.091 |
| ATCGACCA | -0.228 |
| ACACAATC | 0.168 |
| CCCGCCTA | -0.00914 |

| Sequence | PBM E-score |
| --- | --- |
| GGATTAAC | -0.0254 |
| CGTCTAGC | -0.0645 |
| AATAAGAC | 0.0549 |
| AAGCCCGA | -0.187 |
| CGCCGCTC | 0.187 |
| ATGATATC | 0.266 |
| ATGAGCCA | -0.0404 |
| CCCCACGC | -0.334 |
| CAGGGATC | -0.407 |
| GACAAATA | 0.22 |
| AGGACTCG | -0.269 |
| TGATTGCA | 0.164 |
| ACCCGCAC | -0.056 |
| CAGACGGG | -0.311 |
| AGGATTGC | -0.0703 |
| AAATCCCG | -0.0585 |
| AGACGTTA | 0.0355 |
| GACCTTGA | -0.176 |
| AGGTAGGG | -0.178 |
| AAACATCA | 0.268 |
| AGAATTCC | -0.00604 |
| GGTGCCAA | -0.104 |
